Test results from the supplement of paper PMC11741623.
The list shows a part of the results. Interaction screen of human proteins with wild-type SARS-CoV-2 proteins by split-DHFR complementation in yeast, 1 µg/mL methotrexate. Value = fitness of the pair (three or more lineages) minus that of the viral protein without a human partner, on a scale set by negative (0) and fused positive (1) controls, mean of up to three cultures; higher = more likely to interact. Active = false discovery rate below 0.05 (one-sided t-test) in at least one culture. Nearly all pairs are not hits, and differences among them are mostly noise (correlation between cultures about 0.3); most hits were seen in one culture only. Human sequences are the Swiss-Prot entries looked up by gene name; the clone may be another isoform. NSP2 values were corrected by the authors for a growth advantage. Listed are human proteins with a hit and a random twelfth of the others.

B1: C5orf54, Q8IZ13 (protein)
chain: MSKKRKWDDDYVRYWFTCTTEVDGTQRPQCVLCNSVFSNADLRPSKLSDHFNRQHGGVAGHDLNSLKHMPAPSDQSETLKAFGVASHEDTLLQASYQFAYLCAKEKNPHTVAEKLVKPCALEIAQIVLGPDAQKKLQQVPLSDDVIHSRIDEMSQDILQQVLEDIKASPLKVGIQLAETTDMDDCSQLMAFVRYIKEREIVEEFLFCEPLQLSMKGIDVFNLFRDFFLKHKIALDVCGSVCTDGASSMLGENSEFVAYVKKEIPHIVVTHCLLNPHALVIKTLPTKLRDALFTVVRVINFIKGRAPNHRLFQAFFEEIGIEYSVLLFHTEMRWLSRGQILTHIFEMYEEINQFLHHKSSNLVDGFENKEFKIHLAYLADLFKHLNELSASMQRTGMNTVSAREKLSAFVRKFPFWQKRIEKRNFTNFPFLEEIIVSDNEGIFIAAEITLHLQQLSNFFHGYFSIGDLNEASKWILDPFLFNIDFVDDSYLMKNDLAELRASGQILMEFETMKLEDFWCAQFTAFPNLAKTALEILMPFATTYLCELGFSSLLHFKTKSRSCFNLSDDIRVAISKKVPRFSDIIEQKLQLQQKSL
B2: ZNF597, Q96LX8 (protein)
chain: MASMPPTPEAQGPILFEDLAVYFSQEECVTLHPAQRSLSKDGTKESLEDAALMGEEGKPEINQQLSLESMELDELALEKYPIAAPLVPYPEKSSEDGVGNPEAKILSGTPTYKRRVISLLVTIENHTPLVELSEYLGTNTLSEILDSPWEGAKNVYKCPECDQNFSDHSYLVLHQKIHSGEKKHKCGDCGKIFNHRANLRTHRRIHTGEKPYKCAKCSASFRQHSHLSRHMNSHVKEKPYTCSICGRGFMWLPGLAQHQKSHSAENTYESTNCDKHFNEKPNLALPEETFVSGPQYQHTKCMKSFRQSLYPALSEKSHDEDSERCSDDGDNFFSFSKFKPLQCPDCDMTFPCFSELISHQNIHTEERPHKCKTCEESFALDSELACHQKSHMLAEPFKCTVCGKTFKSNLHLITHKRTHIKNTT
B3: PA2G4, Q9UQ80 (protein)
chain: MSGEDEQQEQTIAEDLVVTKYKMGGDIANRVLRSLVEASSSGVSVLSLCEKGDAMIMEETGKIFKKEKEMKKGIAFPTSISVNNCVCHFSPLKSDQDYILKEGDLVKIDLGVHVDGFIANVAHTFVVDVAQGTQVTGRKADVIKAAHLCAEAALRLVKPGNQNTQVTEAWNKVAHSFNCTPIEGMLSHQLKQHVIDGEKTIIQNPTDQQKKDHEKAEFEVHEVYAVDVLVSSGEGKAKDAGQRTTIYKRDPSKQYGLKMKTSRAFFSEVERRFDAMPFTLRAFEDEKKARMGVVECAKHELLQPFNVLYEKEGEFVAQFKFTVLLMPNGPMRITSGPFEPDLYKSEMEVQDAELKALLQSSASRKTQKKKKKKASKTAENATSGETLEENEAGD
B4: PACRG, Q96M98 (protein)
chain: MVAEKETLSLNKCPDKMPKRTKLLAQQPLPVHQPHSLVSEGFTVKAMMKNSVVRGPPAAGAFKERPTKPTAFRKFYERGDFPIALEHDSKGNKIAWKVEIEKLDYHHYLPLFFDGLCEMTFPYEFFARQGIHDMLEHGGNKILPVLPQLIIPIKNALNLRNRQVICVTLKVLQHLVVSAEMVGKALVPYYRQILPVLNIFKNMNGSYSLPRLECSGAIMARCNLDHLGSSDPPTSASQVAEIIVNSGDGIDYSQQKRENIGDLIQETLEAFERYGGENAFINIKYVVPTYESCLLN

molecular target: SARS-CoV-2 E; experiment: yeast fitness gain over the viral ORF with no human partner (scaled fitness); higher = more likely to interact
Experimental: (§1)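 Split mouse DHFR complementation in pooled diploid yeast: human ORFeome clones carry one fragment and viral ORFs the other; barcoded lineages compete in 1 µg/mL methotrexate and fitness is read by barcode sequencing in up to three cultures.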

Question: For B1, which yeast fitness gain is on record?
Answer: inactive: 0.105

Question: B2 was tested. Which yeast fitness gain did it give?
Answer: inactive: -0.0467

Question: Which yeast fitness gain does the source give for B3 here?
Answer: inactive: 0.0516

Question: B4 was tested. Which yeast fitness gain did it give?
Answer: inactive: 0.0465

molecular target: SARS-CoV-2 NSP12; experiment: as above
Experimental: as §1

Question: B1 was tested. Which yeast fitness gain did it give?
Answer: inactive: -0.00743

Question: Which yeast fitness gain does the source give for B2 here?
Answer: inactive: -0.00974

Question: How did the yeast fitness gain turn out when B3 was run?
Answer: inactive: 0.0773

Question: With B4 as the binder, how does the yeast fitness gain read?
Answer: inactive: 0.00191

molecular target: SARS-CoV-2 NSP13; experiment: as above
Experimental: as §1

Question: Which yeast fitness gain does the source give for B1 here?
Answer: inactive: -0.0356

Question: B2 was tested. Which yeast fitness gain did it give?
Answer: inactive: 0.014

Question: For B3, which yeast fitness gain is on record?
Answer: inactive: 0.0447

Question: For B4, which yeast fitness gain is on record?
Answer: inactive: -0.0105

molecular target: SARS-CoV-2 NSP2; experiment: as above
Experimental: as §1

Question: For B1, which yeast fitness gain is on record?
Answer: inactive: -0.506

Question: For B2, which yeast fitness gain is on record?
Answer: inactive: -0.0837

Question: For B3, which yeast fitness gain is on record?
Answer: active: 0.545

Question: B4 was tested. Which yeast fitness gain did it give?
Answer: inactive: -0.141

molecular target: SARS-CoV-2 ORF3B; experiment: as above
Experimental: as §1

Question: How did the yeast fitness gain turn out when B1 was run?
Answer: inactive: 0.0132

Question: B2 was tested. Which yeast fitness gain did it give?
Answer: inactive: -0.0273

Question: With B3 as the binder, how does the yeast fitness gain read?
Answer: inactive: -0.0516

Question: B4 was tested. Which yeast fitness gain did it give?
Answer: inactive: -0.0159

molecular target: SARS-CoV-2 ORF6; experiment: as above
Experimental: as §1

Question: For B1, which yeast fitness gain is on record?
Answer: inactive: 0.023

Question: For B2, which yeast fitness gain is on record?
Answer: inactive: 0.00296

Question: With B3 as the binder, how does the yeast fitness gain read?
Answer: inactive: 0.0192

Question: For B4, which yeast fitness gain is on record?
Answer: inactive: 0.0463

molecular target: SARS-CoV-2 ORF7B; experiment: as above
Experimental: as §1

Question: For B1, which yeast fitness gain is on record?
Answer: inactive: -0.111

Question: How did the yeast fitness gain turn out when B2 was run?
Answer: inactive: -0.0455

Question: Which yeast fitness gain does the source give for B3 here?
Answer: inactive: -0.0767

Question: Which yeast fitness gain does the source give for B4 here?
Answer: inactive: -0.0146

molecular target: SARS-CoV-2 M; experiment: as above
Experimental: as §1

Question: Which yeast fitness gain does the source give for B2 here?
Answer: inactive: -0.0655

Question: For B3, which yeast fitness gain is on record?
Answer: inactive: -0.123

Question: With B4 as the binder, how does the yeast fitness gain read?
Answer: inactive: -0.0294

molecular target: SARS-CoV-2 N; experiment: as above
Experimental: as §1

Question: B2 was tested. Which yeast fitness gain did it give?
Answer: inactive: -0.387

Question: How did the yeast fitness gain turn out when B4 was run?
Answer: inactive: 0.0609

molecular target: SARS-CoV-2 NSP1; experiment: as above
Experimental: as §1

Question: How did the yeast fitness gain turn out when B2 was run?
Answer: inactive: -0.114

Question: With B3 as the binder, how does the yeast fitness gain read?
Answer: inactive: 0.114

Question: B4 was tested. Which yeast fitness gain did it give?
Answer: inactive: -0.0231

molecular target: SARS-CoV-2 NSP10; experiment: as above
Experimental: as §1

Question: Which yeast fitness gain does the source give for B2 here?
Answer: inactive: -0.0151

Question: B3 was tested. Which yeast fitness gain did it give?
Answer: inactive: -0.253

Question: B4 was tested. Which yeast fitness gain did it give?
Answer: inactive: -0.0833

molecular target: SARS-CoV-2 NSP15; experiment: as above
Experimental: as §1

Question: B2 was tested. Which yeast fitness gain did it give?
Answer: inactive: -0.0827

Question: Which yeast fitness gain does the source give for B4 here?
Answer: inactive: 0.00554

molecular target: SARS-CoV-2 NSP16; experiment: as above
Experimental: as §1

Question: B2 was tested. Which yeast fitness gain did it give?
Answer: inactive: 0.0498

Question: How did the yeast fitness gain turn out when B4 was run?
Answer: inactive: 0.0152

molecular target: SARS-CoV-2 NSP5; experiment: as above
Experimental: as §1

Question: With B2 as the binder, how does the yeast fitness gain read?
Answer: inactive: 0.089

Question: Which yeast fitness gain does the source give for B3 here?
Answer: inactive: -0.148

Question: Which yeast fitness gain does the source give for B4 here?
Answer: inactive: -0.00846

molecular target: SARS-CoV-2 NSP6; experiment: as above
Experimental: as §1

Question: How did the yeast fitness gain turn out when B2 was run?
Answer: inactive: 0.0209

Question: How did the yeast fitness gain turn out when B3 was run?
Answer: inactive: -0.2

Question: For B4, which yeast fitness gain is on record?
Answer: inactive: -0.00982

molecular target: SARS-CoV-2 NSP7; experiment: as above
Experimental: as §1

Question: For B2, which yeast fitness gain is on record?
Answer: inactive: 0.046

Question: Which yeast fitness gain does the source give for B3 here?
Answer: inactive: -0.0469

Question: With B4 as the binder, how does the yeast fitness gain read?
Answer: inactive: -0.0758

molecular target: SARS-CoV-2 NSP8; experiment: as above
Experimental: as §1

Question: Which yeast fitness gain does the source give for B2 here?
Answer: inactive: -0.101

Question: B3 was tested. Which yeast fitness gain did it give?
Answer: inactive: -0.0375

Question: How did the yeast fitness gain turn out when B4 was run?
Answer: inactive: 0.0208

molecular target: SARS-CoV-2 ORF10; experiment: as above
Experimental: as §1

Question: With B2 as the binder, how does the yeast fitness gain read?
Answer: inactive: -0.0408

Question: B3 was tested. Which yeast fitness gain did it give?
Answer: inactive: -0.162

Question: How did the yeast fitness gain turn out when B4 was run?
Answer: inactive: -0.0244

molecular target: SARS-CoV-2 ORF3A; experiment: as above
Experimental: as §1

Question: How did the yeast fitness gain turn out when B2 was run?
Answer: inactive: -0.103

Question: For B4, which yeast fitness gain is on record?
Answer: inactive: 0.161

molecular target: SARS-CoV-2 ORF7A; experiment: as above
Experimental: as §1

Question: B2 was tested. Which yeast fitness gain did it give?
Answer: inactive: -0.0973

Question: How did the yeast fitness gain turn out when B4 was run?
Answer: inactive: -0.0865

molecular target: SARS-CoV-2 ORF8; experiment: as above
Experimental: as §1

Question: B2 was tested. Which yeast fitness gain did it give?
Answer: inactive: -0.0307

Question: For B3, which yeast fitness gain is on record?
Answer: inactive: -0.198

Question: How did the yeast fitness gain turn out when B4 was run?
Answer: inactive: -0.0792

molecular target: SARS-CoV-2 ORF9B; experiment: as above
Experimental: as §1

Question: B2 was tested. Which yeast fitness gain did it give?
Answer: inactive: 0.0414

Question: B3 was tested. Which yeast fitness gain did it give?
Answer: inactive: -0.0712

Question: Which yeast fitness gain does the source give for B4 here?
Answer: inactive: -0.0485

molecular target: SARS-CoV-2 ORF9Bwu (the 73-codon ORF); experiment: as above
Experimental: as §1

Question: B2 was tested. Which yeast fitness gain did it give?
Answer: inactive: 0.0203

Question: With B4 as the binder, how does the yeast fitness gain read?
Answer: inactive: 0.0537

molecular target: SARS-CoV-2 S; experiment: as above
Experimental: as §1

Question: For B2, which yeast fitness gain is on record?
Answer: inactive: 0.0496

Question: With B3 as the binder, how does the yeast fitness gain read?
Answer: inactive: 0.241

Question: How did the yeast fitness gain turn out when B4 was run?
Answer: inactive: -0.00997

molecular target: SARS-CoV-2 NSP4; experiment: as above
Experimental: as §1

Question: Which yeast fitness gain does the source give for B3 here?
Answer: inactive: -0.0677

Question: With B4 as the binder, how does the yeast fitness gain read?
Answer: inactive: 0.0481

molecular target: SARS-CoV-2 NSP9; experiment: as above
Experimental: as §1

Question: B3 was tested. Which yeast fitness gain did it give?
Answer: inactive: 0.0417

Question: B4 was tested. Which yeast fitness gain did it give?
Answer: inactive: -0.0239

molecular target: SARS-CoV-2 NSP14; experiment: as above
Experimental: as §1

Question: Which yeast fitness gain does the source give for B4 here?
Answer: inactive: -0.02
